Measured values reported in US20160326228A1 (ACCELERON PHARMA, published 2016).

Legend:
Test in all cases: Biacore; steady-state affinity fit
Activin A = target: T1, Activin A (UniProt P08476 311-426)
T1 construct: also called ActA
T1 sequence (looked up): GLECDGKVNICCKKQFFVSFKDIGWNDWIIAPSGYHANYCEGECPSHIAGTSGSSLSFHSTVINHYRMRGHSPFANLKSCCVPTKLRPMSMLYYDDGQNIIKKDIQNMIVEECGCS
Description: (§1) The affinity of GDF Traps and other ActRIIB-hFc proteins for several ligands was evaluated in vitro with a BiacoreTM instrument. Kd values were obtained by steady-state affinity fit due to the very rapid association and dissociation of the complex, which prevented accurate determination of kₒₙ and koff.

[1] = target: T2, Growth and Differentiation Factor-11 (GDF11) (UniProt O95390 299-407)
T2 construct: also called BMP11
T2 sequence (looked up): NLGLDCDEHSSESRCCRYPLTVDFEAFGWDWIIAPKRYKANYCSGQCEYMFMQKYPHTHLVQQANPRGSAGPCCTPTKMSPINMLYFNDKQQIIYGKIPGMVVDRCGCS
Description: as §1

Activin B = target: T3, Activin B (UniProt P09529 293-407)
T3 sequence (looked up): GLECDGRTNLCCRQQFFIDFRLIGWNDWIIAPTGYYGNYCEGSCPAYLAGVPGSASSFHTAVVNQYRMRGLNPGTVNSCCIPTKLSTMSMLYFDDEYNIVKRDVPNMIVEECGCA
Description: as §1

B1: ActRIIB(L79D 25-131)-hFc (Fc fusion)
chain: ETRECIYYNANWELERTNQSGLERCEGEQDKRLHCYASWRNSSGTIELVKKGCWDDDFNCYDRQECVATEENPQVYFCCCEGNFCNERFTHLPEAGGPEVTYEPPPTG[human IgG1 Fc and a few adjoining residues left out here]
notes: also called GDF Trap with truncated ActRIIB extracellular domain
B1 showed a Kd (Activin A) of 22.9 nM, a Kd [1] of 0.074 nM and a Kd (Activin B) of 0.621 nM.
